According to the supplement of paper PMC12217912:
The list shows a part of the results. The full chains were built here from the parent and the listed change. Inactive controls read about 0.05.

B1: TEV protease; numbered along this chain (parent)
chain: MGESLFKGPRDYNPISSSICHLTNESDGHTTSLYGIGFGPFIITNKHLFRRNNGTLVVQSLHGVFKVKDTTTLQQHLVDGRDMIIIRMPKDFPPFPQKLKFREPQREERICLVTTNFQTKSMSSMVSDTSCTFPSGDGIFWKHWIQTKDGQCGSPLVSTRDGFIVGIHSASNFTNTNNYFTSVPKNFMELLTNQEAQQWVSGWRLNADSVLWGGHKVFMVKPEEPFQPVKEATQL

Variants of: B1
Assay: raw area under fraction-flipped curve 0-4 h after induction (AUC4h, not background-subtracted), DNA-recorder readout of cleavage of the substrate (dimensionless); higher = more cleavage of the substrate by the protease variant
Conditions: temperature: 34 °C; time window: 0-4 h after rhamnose induction
Description: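 In vivo DNA recorder in E. coli TOP10(DE3) ΔrhaA at 34 °C. Each TEVp single-site mutant (parent TEVp 0) is paired with a single-site variant of the 7-mer TEVs (canonical ENLYFQ|S). The substrate sits between flexible linkers in a Bxb1-sfGFP-TEVs-SsrA fusion, so cleavage stabilises Bxb1 and speeds flipping of a recombination array, read by NGS. The value is the raw area under the fraction-flipped curve over 0-4 h after rhamnose induction (AUC4h), with ≥20 reads per time point. It is not background-subtracted; inactive controls average about 0.047.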
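Note: Bxb1 expression induced with 0.2% (w/v) L-rhamnose at OD600 near 0.5, cultures sampled hourly, flipped fraction per protease–substrate barcode pair counted by paired-end Illumina sequencing.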

Variant | area with substrate ENLYFAS | area with substrate ENLYFCS | area with substrate ENLYFES | area with substrate ENLYFFS | area with substrate ENLYFHS | area with substrate ENLYFKS | area with substrate ENLYFLS | area with substrate ENLYFMS | area with substrate ENLYFPS | area with substrate ENLYFTS | area with substrate ENLYFWS | area with substrate ENLYFGS | area with substrate ENLYFIS | area with substrate ENLYFNS | area with substrate ENLYFRS | area with substrate ENLYFVS | area with substrate ENLYFYS | area with substrate ENLYFDS | area with substrate ENLYFSS
H47K | 0.0655 | 0.0538 | 0.0634 | 0.007 | 0.0634 | 0.0713 | 0.0682 | 0.0606 | 0.0656 | 0.0477 | 0.0638 | – | – | – | – | – | – | – | –
H47L | 0.0578 | 0.0525 | 0.0555 | 0.0667 | 0.0416 | 0.0709 | 0.0796 | 0.0602 | 0.0638 | 0.0152 | 0.0525 | 0.06 | 0.0451 | 0.0539 | 0.0488 | 0.0805 | 0.0675 | – | –
H47F | 0.0559 | 0.06 | 0.0527 | 0.0602 | 0.0629 | 0.0701 | 0.0629 | 0.0537 | 0.0521 | 0.0616 | – | 0.0608 | 0.0632 | 0.0522 | 0.0524 | – | – | 0.0618 | 0.0576
H47N | 0.0469 | 0.0539 | 0.0575 | – | 0.0636 | 0.077 | 0.0538 | 0.0547 | 0.0572 | 0.079 | 0.0559 | 0.0652 | 0.0528 | 0.0521 | 0.0665 | 0.0477 | 0.0617 | 0.0637 | –
H47Y | 0.0514 | 0.0594 | 0.0603 | 0.055 | 0.0377 | 0.0767 | 0.0534 | 0.0579 | 0.06 | 0.0441 | 0.0566 | 0.0466 | 0.0553 | 0.0585 | 0.062 | 0.0538 | – | 0.049 | –
H47D | 0.0492 | 0.0474 | 0.0619 | 0.0668 | 0.0077 | – | – | 0.0625 | 0.0612 | 0.0426 | – | – | 0.0569 | 0.0624 | 0.0665 | 0.0609 | 0.062 | 0.0622 | –
G54R | 0.0488 | 0.0647 | 0.0639 | 0.069 | 0.064 | 0.0496 | 0.0603 | 0.056 | 0.0607 | 0.064 | 0.0547 | – | 0.0631 | 0.037 | 0.0543 | 0.0522 | – | 0.0639 | –
G54L | 0.0549 | 0.0497 | 0.0567 | 0.0514 | – | 0.058 | 0.0598 | 0.0553 | 0.0573 | 0.0546 | 0.047 | – | 0.0552 | 0.061 | 0.0691 | 0.0578 | 0.0623 | 0.0562 | 0.0469
G54H | 0.0562 | – | 0.0651 | 0.0596 | – | 0.0599 | – | 0.0565 | 0.067 | 0.0569 | 0.0616 | 0.0663 | 0.0577 | 0.0624 | 0.0448 | 0.0677 | – | – | 0.0393
F65W | 0.0165 | 0.0488 | 0.0278 | 0.0646 | – | 0.058 | 0.0624 | 0.0636 | 0.0594 | 0.0614 | 0.037 | 0.045 | 0.0579 | 0.0765 | 0.045 | – | 0.0495 | – | –
I42C | 0.0614 | 0.0563 | 0.0623 | 0.0621 | 0.0607 | 0.0695 | 0.0525 | 0.0575 | 0.063 | 0.0625 | 0.0569 | 0.0512 | 0.0515 | 0.0532 | – | 0.0651 | 0.0508 | 0.0627 | –
I42Y | 0.0367 | 0.054 | 0.0584 | 0.056 | 0.0455 | 0.0431 | 0.0466 | 0.0332 | 0.0503 | 0.0441 | 0.0417 | 0.0381 | 0.0484 | 0.0491 | 0.0461 | – | 0.0399 | – | 0.0381
V67D | 0.047 | 0.0558 | 0.0523 | 0.0462 | 0.0483 | 0.0456 | – | 0.0492 | 0.0476 | 0.0557 | 0.0508 | – | 0.043 | – | 0.05 | 0.0452 | 0.0304 | 0.0497 | 0.0439
V57W | 0.05 | 0.0628 | 0.0639 | 0.075 | 0.0448 | 0.0635 | 0.0574 | 0.0631 | 0.0564 | 0.0642 | 0.0534 | – | 0.0536 | 0.0569 | 0.0616 | 0.0755 | 0.0609 | – | 0.0569
V57G | 0.0589 | – | 0.0563 | 0.0666 | – | 0.0575 | – | – | 0.0602 | 0.054 | 0.0404 | 0.0641 | 0.0619 | 0.056 | 0.0493 | 0.0544 | 0.0531 | 0.0815 | –
L33P | 0.0449 | – | 0.0486 | 0.0571 | 0.048 | 0.0513 | 0.0484 | – | 0.0768 | 0.0393 | 0.0455 | 0.051 | 0.0461 | – | – | 0.0546 | 0.057 | 0.0463 | –
T31F | 0.0587 | 0.0523 | – | 0.0617 | 0.0773 | – | – | 0.07 | 0.0615 | 0.0806 | 0.0666 | 0.071 | 0.051 | 0.0649 | – | 0.0214 | 0.0563 | – | 0.0529
T31W | 0.0316 | – | 0.0574 | 0.0776 | – | 0.0827 | 0.0512 | 0.0664 | 0.0508 | 0.0617 | 0.0475 | 0.0582 | 0.0364 | 0.0491 | 0.0688 | 0.0582 | 0.0548 | – | 0.0654
S32H | 0.0528 | 0.0611 | 0.0653 | 0.0656 | 0.065 | 0.0772 | 0.0479 | 0.065 | 0.0581 | 0.0569 | 0.0541 | 0.0578 | 0.0588 | 0.0619 | 0.0693 | 0.055 | 0.0534 | 0.0536 | 0.0565
F38P | 0.0462 | 0.0428 | 0.0479 | 0.06 | 0.0593 | – | – | 0.0339 | 0.0434 | 0.0442 | – | 0.0561 | 0.0402 | 0.048 | 0.0375 | – | 0.0331 | 0.0307 | 0.0423
K46P | 0.0176 | 0.0588 | – | 0.0651 | 0.059 | 0.0389 | 0.0619 | 0.0466 | 0.0546 | 0.0723 | – | – | 0.0538 | 0.0567 | 0.0529 | – | – | – | 0.0501
I36R | 0.0477 | 0.05 | 0.042 | 0.0534 | 0.0594 | 0.0301 | – | 0.0515 | 0.0409 | 0.0447 | 0.0395 | – | 0.0497 | 0.0397 | 0.0637 | 0.0414 | 0.0368 | 0.0447 | 0.044
